# Data published in the supplement of paper PMC10369915.
# The other results are listed elsewhere or left out. Rule as the data show it: active = 3.2 or more and inactive = the rest. Only a few entries rise above the background.
# How the values were obtained:
# Assay in all cases: enrichment score (SH2-bound / input frequency) (ratio); bacterial display of known human phosphotyrosine sites (pTyr-Var adds point mutants) read by sequencing; higher = stronger binding; tyrosines were phosphorylated by kinases first
# Details in all cases: peptide library: pTyr-Var
# [1] = target: SHP2 C-SH2 domain E139D
# [2] = target: SHP2 C-SH2 domain wild-type
# [3] = target: SHP2 N-SH2 domain L43F
# [4] = target: SHP2 N-SH2 domain T42A
# [5] = target: SHP2 N-SH2 domain T52S
# [6] = target: SHP2 N-SH2 domain wild-type
# 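Also: displayed peptides selected on beads carrying the immobilized SH2 domain, with library peptides lacking any tyrosine serving as negative controls.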
Binder,enrichment score [1],enrichment score [2],enrichment score [3],enrichment score [4],enrichment score [5],enrichment score [6]
THQNSYQPGRK [CEFIP_Y210],inactive: 0.59,inactive: 0.508,inactive: 0.665,inactive: 0.47,inactive: 0.546,inactive: 0.574
CGTPTCLAPEV [CHEK2_Y390_Y390C],inactive: 0.873,inactive: 1.01,inactive: 1.04,inactive: 0.727,inactive: 1.03,inactive: 1.08
TINPIHEHVGF [CHN1_Y143_Y143H_YF],inactive: 1.2,inactive: 0.944,inactive: 1.18,inactive: 1.04,inactive: 0.967,inactive: 1.09
VSFGEYRFRSV [CFTR_Y515_D513G_YF],inactive: 0.711,inactive: 0.593,inactive: 0.668,inactive: 0.653,inactive: 0.749,inactive: 0.904
EKKDLYKAGEQ [CFH_Y1008_V1007L],inactive: 0.668,inactive: 0.627,inactive: 0.74,inactive: 0.58,inactive: 0.533,inactive: 0.917
IFGVSYGEFRF [CFTR_Y512_D513G_YF],inactive: 2.07,inactive: 2.02,inactive: 2,inactive: 2.55,inactive: 2.08,inactive: 2.09
DHFNQYEQQKM [CHD7_Y75_YF],inactive: 0.677,inactive: 0.508,inactive: 0.803,inactive: 0.596,inactive: 0.548,inactive: 0.689
IRKKFYRAILE [CHD7_Y1218_Q1214R_YF],inactive: 0.469,inactive: 0.385,inactive: 0.257,inactive: 0.436,inactive: 0.29,inactive: 0.425
ITRDEYPSNPM [CEMIP2_Y1015],inactive: 0.59,inactive: 0.593,inactive: 0.583,inactive: 0.519,inactive: 0.562,inactive: 0.449
EKKDVYKTGEQ [CFH_Y1008_A1010T],inactive: 0.351,inactive: 0.394,inactive: 0.527,inactive: 0.398,inactive: 0.396,inactive: 0.261
MNLLGYRHVRS [CHST4_Y359],inactive: 0.479,inactive: 0.457,inactive: 0.467,inactive: 0.493,inactive: 0.494,inactive: 0.508
QMRLRYLAAEE [CEP120_Y884],inactive: 1.23,inactive: 1.01,inactive: 0.814,inactive: 0.688,inactive: 0.722,inactive: 0.925
SGASGYSATST [CERT1_Y143],inactive: 0.368,inactive: 0.478,inactive: 0.407,inactive: 0.388,inactive: 0.385,inactive: 0.413
FPILNYKDIRK [CFAP221_Y798_M795I],inactive: 1.06,inactive: 0.8,inactive: 1.11,inactive: 0.992,inactive: 0.788,inactive: 0.855
YAFQLYDLDPD [CHP2_Y123_R127P],inactive: 1.31,inactive: 2.07,inactive: 1.37,inactive: 1.19,inactive: 1.12,inactive: 0.797
IFHENYNAGTY [CFI_Y421],inactive: 1.16,inactive: 0.818,inactive: 0.948,inactive: 0.724,inactive: 1.01,inactive: 0.897
FPMLNYKDIRK [CFAP221_Y798],inactive: 0.874,inactive: 0.947,inactive: 1.03,inactive: 0.703,inactive: 1.27,inactive: 0.97
YEHVGYTTLNR [CHN1_Y148],inactive: 1.13,inactive: 3.16,inactive: 0.77,inactive: 2.33,inactive: 0.707,inactive: 0.647
CGASGYSATST [CERT1_Y143_S138C],inactive: 0.682,inactive: 0.869,inactive: 0.735,inactive: 0.664,inactive: 0.525,inactive: 0.913

Binder,enrichment score [1],enrichment score [2],enrichment score [3],enrichment score [4],enrichment score [5],enrichment score [6]
FEHVGYTTLNR [CHN1_Y148_YF],inactive: 1.6,active: 3.96,inactive: 0.916,active: 3.34,inactive: 0.906,inactive: 0.713
RLSELYLRRNR [CFAP410_Y68],inactive: 0.23,inactive: 0.196,inactive: 0.402,inactive: 0.24,inactive: 0.234,inactive: 0.217
FAFQLYDLDPD [CHP2_Y123_R127P_YF],inactive: 1.86,inactive: 1.58,inactive: 1.6,inactive: 1.5,inactive: 1.64,inactive: 1.81
FGEFRYRSVIK [CFTR_Y517_D513G_YF],inactive: 0.492,inactive: 0.479,inactive: 0.538,inactive: 0.508,inactive: 0.607,inactive: 0.691
YDEYRYRSVIK [CFTR_Y517],inactive: 0.717,inactive: 0.787,inactive: 0.765,inactive: 0.792,inactive: 0.593,inactive: 0.792
FRARAYSFRGP [CHGA_Y381_G382S],inactive: 0.214,inactive: 0.19,inactive: 0.247,inactive: 0.243,inactive: 0.213,inactive: 0.272
FRARAYGFRGP [CHGA_Y381],inactive: 0.255,inactive: 0.317,inactive: 0.431,inactive: 0.295,inactive: 0.317,inactive: 0.202
AKRKNYAPVAM [CFAP47_Y557],inactive: 0.639,inactive: 0.615,inactive: 0.692,inactive: 0.528,inactive: 0.826,inactive: 0.661
DHYNQYEQQKM [CHD7_Y75],inactive: 0.506,inactive: 0.461,inactive: 0.601,inactive: 0.385,inactive: 0.446,inactive: 0.387
KPEKTYGLRKE [CEP43_Y267],inactive: 1.06,inactive: 0.978,inactive: 0.885,inactive: 0.87,inactive: 0.902,inactive: 0.942
VSYDEYRYRSF [CFTR_Y515_V520F],inactive: 0.609,inactive: 0.661,inactive: 0.539,inactive: 0.605,inactive: 0.467,inactive: 0.567
AHEALYLEADL [CENPF_Y1920_E1915A],inactive: 0.747,inactive: 0.77,inactive: 0.848,inactive: 0.761,inactive: 0.708,inactive: 1.1
VSFDEYRFRSF [CFTR_Y515_V520F_YF],inactive: 0.786,inactive: 0.658,inactive: 0.671,inactive: 0.607,inactive: 0.686,inactive: 0.867
AKRKNYAPVTM [CFAP47_Y557_A561T],inactive: 0.931,inactive: 0.838,inactive: 0.71,inactive: 0.585,inactive: 0.644,inactive: 0.552
IRKKYYRAILE [CHD7_Y1218_Q1214R],inactive: 0.276,inactive: 0.36,inactive: 0.287,inactive: 0.383,inactive: 0.352,inactive: 0.318
TQKLAYMELQQ [CENPF_Y700],inactive: 0.778,inactive: 1.06,inactive: 2.1,inactive: 2.83,inactive: 1.96,inactive: 1.26
EEVKAYLDFGE [CHAC2_Y78_R82G],inactive: 1.19,inactive: 1.35,inactive: 0.861,inactive: 1.19,inactive: 0.911,inactive: 1.11
THQKSYQPGRK [CEFIP_Y210_N208K],inactive: 0.425,inactive: 0.675,inactive: 0.516,inactive: 0.436,inactive: 0.301,inactive: 0.459
